Patent US20070212426A1, “Composition and method of retarding viral activity and reducing viral replication” (priority 2006, published 2007)

Tested on: Influenza Virus A's Neuraminidase
Assay: Neuraminidase activity of cell-free virus, 4-methylumbelliferyl N-acetylneuramic acid substrate
Settings: various concentrations

O=C1O[C@H]([C@@H](O)CO)C(O)=C1O [ascorbic acid]
effect on Influenza Virus A's Neuraminidase Activity (figure legend): non-retardation effect
